The other results are listed elsewhere or left out.
Target: T1, MBP-FoxP1dN (Mus musculus, UniProt P58462 326-579)
T1 sequence: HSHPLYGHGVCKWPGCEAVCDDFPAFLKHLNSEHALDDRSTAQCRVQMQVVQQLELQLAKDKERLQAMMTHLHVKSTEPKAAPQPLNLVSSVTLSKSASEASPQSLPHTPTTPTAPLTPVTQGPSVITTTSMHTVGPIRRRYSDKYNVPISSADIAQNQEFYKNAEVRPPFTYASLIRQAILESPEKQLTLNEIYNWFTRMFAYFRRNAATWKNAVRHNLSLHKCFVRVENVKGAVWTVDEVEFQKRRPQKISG
Experiment: PD-seq (MBP pull-down with sequencing); 20 mM Tris-HCl pH 7.5, 100 mM NaCl, 1.5 mM MgCl2, 0.4 uM protein, 0.1 uM dsDNA library, 30 min, room temperature, amylose pull-down; high values mean tight binding
Conditions: protein: recombinant; tags: His6-MBP; chain copies: 2; dsDNA, one strand shown
Outline: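 His6-MBP-tagged mouse FoxP3 or FoxP1 fragment lacking the N-terminus, expressed in E. coli, was mixed at 0.4 µM with 0.1 µM Klenow-filled double-stranded degenerate DNA library. Incubation was 30 min at room temperature in Tris pH 7.5 buffer with NaCl and MgCl2. Complexes were caught on amylose resin and washed three times; DNA was released with proteinase K, PCR-barcoded and Illumina-sequenced. Binding is reads-per-million enrichment, pull-down over input, with replicates pooled.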

| Sequence | binding signal |
| --- | --- |
| GATGATTGTTCTCCCAGCTGATGAATTCCTGAGTTCGAGTAAACAAATTTTCCTAATCTTTCTGTTCAAGCGCCATCTAC | 0.814 RPM ratio (pull-down/input) |
| GATGATTGTTCTCCCAGCTGATGAATTGATCTAGTCGAGTAAACAAATTTTCCTAATCTTTCTGTTCAAGCGCCATCTAC | 0.885 RPM ratio (pull-down/input) |
| GATGATTGTTCTCCCAGCTGATGAATTGTGAGAGTCGAGTAAACAAATTTTCCTAATCTTTCTGTTCAAGCGCCATCTAC | 0.956 RPM ratio (pull-down/input) |
| GATGATTGTTCTCCCAGCTGATGAATTTCCGCATTCGAGTAAACAAATTTTCCTAATCTTTCTGTTCAAGCGCCATCTAC | 1.19 RPM ratio (pull-down/input) |
| GATGATTGTTCTCCCAGCTGATGAATTCGGCAAGTCGAGTAAACAAATTTTCCTAATCTTTCTGTTCAAGCGCCATCTAC | 0.824 RPM ratio (pull-down/input) |
| GATGATTGTTCTCCCAGCTGATGAATTTAGCCAATCGAGTAAACAAATTTTCCTAATCTTTCTGTTCAAGCGCCATCTAC | 1.09 RPM ratio (pull-down/input) |
| GATGATTGTTCTCCCAGCTGATGAATTACAGACATCGAGTAAACAAATTTTCCTAATCTTTCTGTTCAAGCGCCATCTAC | 1.06 RPM ratio (pull-down/input) |
| GATGATTGTTCTCCCAGCTGATGAATTACGTACCTCGAGTAAACAAATTTTCCTAATCTTTCTGTTCAAGCGCCATCTAC | 0.957 RPM ratio (pull-down/input) |
| GATGATTGTTCTCCCAGCTGATGAATTCGATGGGTCGAGTAAACAAATTTTCCTAATCTTTCTGTTCAAGCGCCATCTAC | 0.732 RPM ratio (pull-down/input) |
| GATGATTGTTCTCCCAGCTGATGAATTTTCTACTTCGAGTAAACAAATTTTCCTAATCTTTCTGTTCAAGCGCCATCTAC | 1.01 RPM ratio (pull-down/input) |
| GATGATTGTTCTCCCAGCTGATGAATTGTTAGATTCGAGTAAACAAATTTTCCTAATCTTTCTGTTCAAGCGCCATCTAC | 1.18 RPM ratio (pull-down/input) |
| GATGATTGTTCTCCCAGCTGATGAATTGGGAAAGTCGAGTAAACAAATTTTCCTAATCTTTCTGTTCAAGCGCCATCTAC | 0.816 RPM ratio (pull-down/input) |
| GATGATTGTTCTCCCAGCTGATGAATTGATCAAATCGAGTAAACAAATTTTCCTAATCTTTCTGTTCAAGCGCCATCTAC | 1.15 RPM ratio (pull-down/input) |
| GATGATTGTTCTCCCAGCTGATGAATTCTTAGATTCGAGTAAACAAATTTTCCTAATCTTTCTGTTCAAGCGCCATCTAC | 0.89 RPM ratio (pull-down/input) |
| GATGATTGTTCTCCCAGCTGATGAATTTGCCCGCTCGAGTAAACAAATTTTCCTAATCTTTCTGTTCAAGCGCCATCTAC | 0.766 RPM ratio (pull-down/input) |
| GATGATTGTTCTCCCAGCTGATGAATTCAGACTTTCGAGTAAACAAATTTTCCTAATCTTTCTGTTCAAGCGCCATCTAC | 0.904 RPM ratio (pull-down/input) |

| Sequence | binding signal |
| --- | --- |
| GATGATTGTTCTCCCAGCTGATGAATTACGACTCTCGAGTAAACAAATTTTCCTAATCTTTCTGTTCAAGCGCCATCTAC | 0.981 RPM ratio (pull-down/input) |
| GATGATTGTTCTCCCAGCTGATGAATTGGGAATTTCGAGTAAACAAATTTTCCTAATCTTTCTGTTCAAGCGCCATCTAC | 0.853 RPM ratio (pull-down/input) |
| GATGATTGTTCTCCCAGCTGATGAATTCTTCAAATCGAGTAAACAAATTTTCCTAATCTTTCTGTTCAAGCGCCATCTAC | 1.01 RPM ratio (pull-down/input) |
| GATGATTGTTCTCCCAGCTGATGAATTGTTTCCTTCGAGTAAACAAATTTTCCTAATCTTTCTGTTCAAGCGCCATCTAC | 1.44 RPM ratio (pull-down/input) |
| GATGATTGTTCTCCCAGCTGATGAATTCGGACACTCGAGTAAACAAATTTTCCTAATCTTTCTGTTCAAGCGCCATCTAC | 0.831 RPM ratio (pull-down/input) |
| GATGATTGTTCTCCCAGCTGATGAATTATAAAGCTCGAGTAAACAAATTTTCCTAATCTTTCTGTTCAAGCGCCATCTAC | 0.937 RPM ratio (pull-down/input) |
| GATGATTGTTCTCCCAGCTGATGAATTGACGCCGTCGAGTAAACAAATTTTCCTAATCTTTCTGTTCAAGCGCCATCTAC | 1.11 RPM ratio (pull-down/input) |
| GATGATTGTTCTCCCAGCTGATGAATTCGGCCCTTCGAGTAAACAAATTTTCCTAATCTTTCTGTTCAAGCGCCATCTAC | 0.808 RPM ratio (pull-down/input) |
| GATGATTGTTCTCCCAGCTGATGAATTCACTACGTCGAGTAAACAAATTTTCCTAATCTTTCTGTTCAAGCGCCATCTAC | 0.91 RPM ratio (pull-down/input) |
| GATGATTGTTCTCCCAGCTGATGAATTATACGTCTCGAGTAAACAAATTTTCCTAATCTTTCTGTTCAAGCGCCATCTAC | 0.997 RPM ratio (pull-down/input) |
| GATGATTGTTCTCCCAGCTGATGAATTGCAGTTTTCGAGTAAACAAATTTTCCTAATCTTTCTGTTCAAGCGCCATCTAC | 1.52 RPM ratio (pull-down/input) |
| GATGATTGTTCTCCCAGCTGATGAATTAGCACGATCGAGTAAACAAATTTTCCTAATCTTTCTGTTCAAGCGCCATCTAC | 0.875 RPM ratio (pull-down/input) |
| GATGATTGTTCTCCCAGCTGATGAATTGACGTACTCGAGTAAACAAATTTTCCTAATCTTTCTGTTCAAGCGCCATCTAC | 1.09 RPM ratio (pull-down/input) |
| GATGATTGTTCTCCCAGCTGATGAATTTTATTTCTCGAGTAAACAAATTTTCCTAATCTTTCTGTTCAAGCGCCATCTAC | 1.16 RPM ratio (pull-down/input) |
| GATGATTGTTCTCCCAGCTGATGAATTTAAGCCGTCGAGTAAACAAATTTTCCTAATCTTTCTGTTCAAGCGCCATCTAC | 0.861 RPM ratio (pull-down/input) |
| GATGATTGTTCTCCCAGCTGATGAATTTGCGTAATCGAGTAAACAAATTTTCCTAATCTTTCTGTTCAAGCGCCATCTAC | 1.51 RPM ratio (pull-down/input) |
